Test results taken from the supplement of paper PMC3334620.
The full ranking holds about 33,000 sequences; the median of “E-score (-0.5 to 0.5)” is about -0.036, and the highest 2% start at about 0.37. The list shows a part of the results.

Target: T1, Yer064c (UniProt P40041)
T1 sequence: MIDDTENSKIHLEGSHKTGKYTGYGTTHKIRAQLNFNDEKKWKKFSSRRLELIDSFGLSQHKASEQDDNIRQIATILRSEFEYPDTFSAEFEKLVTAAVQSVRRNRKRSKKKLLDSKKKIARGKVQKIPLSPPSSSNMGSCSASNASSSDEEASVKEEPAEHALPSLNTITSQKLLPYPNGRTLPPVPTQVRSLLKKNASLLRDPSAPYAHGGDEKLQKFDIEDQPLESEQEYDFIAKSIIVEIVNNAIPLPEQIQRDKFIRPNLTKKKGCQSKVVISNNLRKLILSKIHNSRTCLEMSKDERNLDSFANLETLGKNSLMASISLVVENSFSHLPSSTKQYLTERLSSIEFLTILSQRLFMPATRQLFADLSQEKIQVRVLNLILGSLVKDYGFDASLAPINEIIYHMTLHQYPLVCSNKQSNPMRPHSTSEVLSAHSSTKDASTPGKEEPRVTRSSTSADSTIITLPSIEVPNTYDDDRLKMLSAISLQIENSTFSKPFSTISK
Experiment: PBM E-score (8-mer binding enrichment) (E-score (-0.5 to 0.5)); higher = stronger / more preferred TF binding; most listed sequences are background and not binding sites
Details: protein concentration: 200 nM; construct: GST-full length
How it was run: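 Universal all-10-mer Agilent arrays, double-stranded by primer extension on fresh or once-stripped slides, were probed with about 100-200 nM GST-tagged yeast transcription factors made by PURExpress. Fluorescent anti-GST detected bound protein, and masliner normalised the scans. E-scores from the Universal PBM Analysis Suite were given to each ungapped eight-base word pooled with its reverse complement.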

Point of comparison: AGAAGGAC, “PBM E-score” value 0.033. Against it:
- CAGTTACC — lower, -0.0809
- ACGCCGCA — lower, -0.172
- TCCCTCCA — lower, -0.213
- CATAGAAG — lower, -0.0371
- CAGCGGTA — lower, -0.0158
- AGCCTAGA — lower, -0.228
- CGTAGGGC — lower, -0.276
- AATTGACA — lower, -0.116
- ACGCTTCT — lower, -0.19
- CCCGTACA — lower, -0.279
- CGACTGAC — higher, 0.315
- GATAGCTA — lower, -0.0995
- CAAATATC — lower, 0.00481
- GTACCAGA — lower, -0.00811
- TGGTTTAA — higher, 0.138
- ATTCCCCC — lower, -0.179
- ATCTCGTG — higher, 0.0462
- ATCACTCC — higher, 0.194
- ATACGCAG — lower, 0.0109
- CACGCCCC — lower, -0.154
- GAGCTGGA — lower, -0.0882
- GCCAACAC — higher, 0.0868
- GTGCAGTA — lower, -0.107
- CAATCTTC — higher, 0.19
- AGTAAATA — lower, 0.0177
- AACGACCG — lower, -0.125
- AGATAGCG — lower, -0.125
- ATCTCTGC — lower, -0.022
- CGACGCTC — higher, 0.0634
- AGGTTGTC — lower, -0.211
- GTTTGCAA — higher, 0.195
- CTACGAGC — lower, -0.0131
- CCTAGTCG — higher, 0.263
- CTGGGCCC — lower, -0.31
- CTGCACAC — lower, -0.173
- ACTCAAGA — higher, 0.3
- ATATTTTC — lower, -0.0776
- AAGGCCTC — lower, -0.0997
- ACGCTGTC — lower, -0.181
- CGATTCGA — higher, 0.0503
- CCGCGCAA — lower, -0.0599
- ACACTAGT — higher, 0.126
- AATGCCCC — lower, -0.226
- TAACGCTA — lower, -0.0624
- AACCTGTG — higher, 0.0664
- AATTGGGA — lower, -0.181
- ATGGCTTG — lower, -0.159
- ATTTACTG — higher, 0.0929
- AACAATGT — lower, -0.0664
- CACTCTGG — lower, -0.166
- AGCCAATA — lower, 0.0024
- GAGAAGGC — lower, -0.344
- AAATAGTC — higher, 0.382
- CACTCCCC — lower, -0.147
- CCATGGGG — lower, -0.124
- GGAATCTA — lower, -0.134
- CGAGGTGA — higher, 0.0922
- GACCGCCA — lower, -0.188
- AACTTGGG — lower, -0.0983
- AAGCTCGC — lower, -0.0454
- CGTGAGTA — higher, 0.323
- ATGATCTC — higher, 0.118
- CAACCGCA — lower, -0.0533
- CACCACCC — lower, -0.077
- CGTACTTA — lower, -0.00347
- AGCGCTGG — higher, 0.0943
- AATCCATT — higher, 0.221
- AACTTCCA — lower, -0.0543
- AGGCCGAT — lower, -0.0563
- GATGCAGC — lower, -0.253
- ATACATCC — lower, -0.162
- CAATTTCC — lower, -0.112
- CAACTAGG — higher, 0.0954
- CTCCCTGA — higher, 0.0469
- ATATTGAG — higher, 0.198
- AAGCTAAC — higher, 0.0575
- AGACCCAT — higher, 0.0625
- ACGGAGAA — lower, -0.162
- CCGTCTTC — lower, -0.154
- AATTGCCT — lower, -0.0277
- CACCAAAG — lower, -0.0275
- CTACCTGA — higher, 0.214
- ATGAACCC — lower, -0.026
- GGTGCAGA — lower, -0.143
- CGGGAGCA — lower, -0.213
- CACTTTGC — higher, 0.0624
- GCAGCAAC — lower, -0.0574
- TATGTCCA — lower, -0.238
- CATTACTA — lower, 0.0127
- GAGGGGGC — lower, -0.337
- ATACGCCC — lower, -0.142
- ATCCACGA — higher, 0.0848
- CAAGCAGC — lower, -0.194
- AGGTTCTA — lower, -0.212
- ATGTTCAG — lower, -0.118
- ACAAGAGT — higher, 0.149
- ATAAGAAG — lower, -0.0359
- CTGACACA — higher, 0.119
- CACTGTAA — higher, 0.102
- AGCAACAG — lower, -0.261
- CGCGTCTA — lower, -0.228
- GCTCCGGA — lower, -0.324
- ACGGTCTA — lower, -0.106
- TGCTTACA — higher, 0.0748
- GCACGGAC — lower, -0.225
- ACGTATTG — lower, -0.0591
- AGACCCCA — lower, -0.174
- ACCGGAGG — lower, -0.294
- ACGGATCG — lower, -0.0973
- ACAGAGGA — lower, -0.129
- ATGAGACG — higher, 0.0866
- TGAGCCCA — lower, -0.021
- AGGATCGG — lower, -0.209
- AGACCCGC — lower, -0.156
- GATCAGCA — higher, 0.0466
- TAAATCAA — higher, 0.236
- CAGTTCGC — lower, 0.0152
- GAAATCAA — higher, 0.0858
- AATAAAGC — lower, -0.0941
- CATATTGG — lower, -0.027
- CTTGGCGC — lower, -0.0911
- CGATAGAA — lower, -0.145
- ACGACGGA — lower, -0.109
- CAGGGAGA — lower, -0.0256
- TACCTCTA — lower, -0.00282
- CTCCGAGA — lower, -0.0556
- AAGTTGGG — lower, -0.113
- AACTCTGC — higher, 0.0728
- ATTTCGCG — higher, 0.0653
- GGAAACTA — higher, 0.0413
- ATTTCAAC — lower, -0.0239
- CGAGGCAG — lower, -0.189
- TCATGCGA — higher, 0.285
- ATTCGTTC — lower, -0.0142
- GAAAACTC — lower, -0.164
- CTGAGATC — lower, -0.0614
- ATCTGAGC — higher, 0.0723
- GGCCCGCC — lower, -0.323
- CAGTCTTA — higher, 0.278
- GTTCATTA — lower, -0.0225
- GTTTAGAA — lower, -0.0338
- GAGACCCA — lower, -0.0361
- ACCAGGTG — lower, -0.134
- AACTAAGC — higher, 0.0808
- CATTGCTC — lower, -0.115
- GAAAATAA — higher, 0.133
- CCACAGGG — lower, -0.0842
- CTGGCGAA — higher, 0.102
- AAGTCGAG — lower, -0.16
- AGAAGGTA — lower, -0.075
- AGTTGAGC — lower, -0.0945
- CCTATGAC — higher, 0.235
- CGTGGTCC — lower, -0.0172
- ATCAGTGA — higher, 0.187
- GGAGTTAA — higher, 0.179
- AAAATGCT — lower, -0.105
- CGATGTCC — lower, -0.28
- CACGTCAG — lower, -0.0619
- ATAACTAA — higher, 0.16
- ATGTTTAC — higher, 0.0611
- ACTGGTCC — lower, -0.143
- CGTAGGAG — lower, -0.156
- TCCATCAA — higher, 0.105
- GGAGGTGA — higher, 0.157
- AAACCTTG — the same, 0.033
- GGCATTAA — lower, -0.11
- GGCTGCAC — lower, -0.0499
- GATGCTTA — lower, -0.252
- AGTCAACC — higher, 0.442
- GCGCAGAA — lower, -0.0381
- AAGTATCT — lower, 0.0137
